In patent US20200179510A1, “LOW DENSITY LIPOPROTEIN RECEPTOR RELATED PROTEIN 5 INHIBITION SUPPRESSES TUMOR FORMATION” (YALE UNIVERSITY, priority 2017, published 2020):

Columns and labels:
[1] = target: T1, Recombinant mouse DKK2 (Mus musculus, UniProt Q9QYZ8); assay: ELISA, 5F8 binding to DKK2; conditions: DKK2 20 ng/ml coated
T1 construct: purchased R&D
T1 sequence (Q9QYZ8 34-259): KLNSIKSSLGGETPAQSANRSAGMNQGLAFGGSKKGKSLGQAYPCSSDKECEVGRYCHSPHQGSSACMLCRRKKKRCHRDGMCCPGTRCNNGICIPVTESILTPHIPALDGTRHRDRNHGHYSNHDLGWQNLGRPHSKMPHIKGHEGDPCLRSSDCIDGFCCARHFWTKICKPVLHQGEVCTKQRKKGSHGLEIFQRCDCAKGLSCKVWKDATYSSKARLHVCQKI
Description: (§1) Recombinant mouse DKK2 or DKK1 protein (20 ng/ml, R&D) in a blocking buffer (1% BSA in PBS) was incubated in a 384-well microtiter plate for overnight at 4° C. The plate was washed with PBS twice and incubated with the blocking buffer for one hour at room temperature. The plate was then incubated with the anti-DKK2 5F8 antibody in the blocking buffer for 1 hour at room temperature. After repeatedly washing, the plate was incubated with an HRP-conjugated secondary antibody for 1 hour at room temperature. A chemiluminance substrate (Thermo Fisher 37070) was added to the plate, and the plate was read by an EnVision plate reader.

[2] = target: T2, Recombinant mouse DKK1 (Mus musculus, UniProt O54908); assay: ELISA, 5F8 binding to DKK1; conditions: DKK1 20 ng/ml coated
T2 construct: purchased R&D
T2 sequence (O54908 32-272): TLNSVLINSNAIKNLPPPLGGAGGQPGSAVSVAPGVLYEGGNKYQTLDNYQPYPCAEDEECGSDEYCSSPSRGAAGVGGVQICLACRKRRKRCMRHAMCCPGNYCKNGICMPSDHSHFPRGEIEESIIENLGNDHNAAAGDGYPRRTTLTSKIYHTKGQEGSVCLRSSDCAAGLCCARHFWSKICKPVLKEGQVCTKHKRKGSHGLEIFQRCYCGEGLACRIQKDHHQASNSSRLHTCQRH
Description: as §1

[3] = tested on: MC38 cells; assay: MC38 cell growth in culture; format: cell-based, mouse
[4] = tested on: MC38 tumors; assay: Immunostaining of MC38 tumor sections (CD31, Ki67, activated caspase 3, granzyme B); format: in vivo, mouse; conditions: 5F8 10 mg/kg i.p. every three days from Day 14, vs IgG
Description: Tissues were fixed with 4% PFA (Santa-Cruz sc-281692) for 4-6 hours on a shaker at 4° C. They were then washed with PBS three times and perfused in 20% sucrose solution in PBS overnight at 4° C. They were subsequently mounted in the OCT embedding compound and frozen first at −20 and then at −80° C. Tissue sections were prepared at 8 μm thickness using a cryostat and mounted onto gelatin-coated histological slides, which were stored at −80° C. For immunostaining, slides were thawed to room temperature and fixed in pre-cold acetone for 10 minutes, followed by rehydration in PBS for 10 minutes. The slides were incubated in a blocking buffer (1% horse serum and 0.02% Tween 20 in PBS) for 1-2 hours at room temperature, followed by incubation with primary antibodies, which were diluted in an incubation buffer (1% horse serum, 0.02% Tween 20 in PBS), overnight at 4° C. The slides were then washed three times with PBS and incubated with a secondary antibody [donkey anti-rabbit IgG H&L (DyLight® 550) preadsorbed (abcam ab96920)] in the incubation buffer for 1 hour at room temperature. After repeated washes the slides were mounted with an antifade mounting media containing DAPI (Thermo Fisher P36931) and visualized using a confocal microscope.
To test the effects of 5F8 antibody on tumor cell microenvironment such as changes in angiogenesis, proliferation or apoptosis, MC38 tumors were examined using an immunohistological approach. In this study, C57BL mice (10 week old female mice, n=5 per group) were grafted with MC38 cells via the subcutaneous (s.c.) route. Fourteen days later, the mice were treated every three days via the intraperitoneal (i.p.) route with mouse IgG or 5F8 (10 mg/kg). […] To test if DKK2 expression may alter the tumor microenvironment to induce apoptosis via proper anti-tumor immune response, the levels and anti-tumor activity of cytotoxic effector immune cells were measured. Immune cytotoxic cells, such as natural killer cells (NK) and CD8+T lymphocytes, are capable of directly killing tumor cells by secreting preformed granules containing perforin and granzymes. Uptake of granzyme B (gzmb), which is a serine protease, induces target cell apoptosis via a pathway involving proteolytic activation of Caspases, cleavage of Bid, and fragmentation of DNA. (Thornberry et al., J Biol Chem, 1997. 272(29): p. 17907-11; Heusel et al., Cell, 1994. 76(6): p. 977-87).

[5] = tested on: tumor infiltrated leukocytes (CD8+ and NK1.1+ cells); assay: Flow cytometry of tumor infiltrated leukocytes, MC38 tumors; format: in vivo, mouse
Description: Tumors were minced using scissors and scalpel blades and incubated with a digestion buffer [RPMI1640, 5% FBS, 1% PS, 25 mM HEPES and 300 U collagenase (Sigma C0130)] in a shaker for 2 h at 37° C. Disperse cells were filtered through a 70 μm cell strainer to eliminate clumps and debris. After centrifugation for 5 minutes (500×g) at 4° C., cell pellets were resuspended in the Red Blood Cell Lysis Buffer (Sigma R7757) and incubated at RT for 5 min to remove erythrocytes. Cells were pelleted again, resuspended and incubated in 0.05% Trypsin/EDTA at 37° C. for 5 min, followed by DNA digestion with the addition of Type I DNase (1 μg/ml final, Sigma D4263) for 5 min. Trypsin digestion was stopped by the addition of FBS to 5%, and cells were filtered again by a 40 μm cell strainer. Finally, the cells were pelleted again and resuspended in PBS at a concentration of […].
Cells in single cell suspension were fixed with 2% PFA (Santa-Cruz sc-281692). After washing with a Flow Cytometry Staining Buffer (eBioscience 00-4222-26), cells were stained with antibodies for cell surface markers for 1 hour on ice in the dark. For staining of intracellular proteins, the cells were washed and resuspended in the Permeabilization Buffer (BD 554723) and stained by antibodies in the Permeabilization Buffer for 1 hour on ice in the dark. The cells were then pelleted and resuspended in the Flow Cytometry Staining Buffer for flow cytometry analysis.

[6] = 5F8 10 mg/kg i.p. Days 9 and 12, tumors collected Day 14, vs isotype
[7] = one injection 10 mg/kg i.p., 24 hours

B1: 5F8: Mouse monoclonal antibody to DKK2, raised against a synthetic peptide of human DKK2 (SEQ ID NO: 21); chains SEQ ID NOs: 22, 23 (antibody, V domains shown)
VH: GAELVRPGASVKLSCKASGYSFTNYWMNWVKQRPGQGLEWIGMIHPSDSETRLNQKFKDKATLTVDKSSSTAYMQLSSPTSEDSAVYYCAREGRLGLRSYAMDYWGQGTSVTVSS
VL: PSSLAMSVGQKVTMSCKSSQSLLNSSNQKNYLAWYQQKPGQSPKLLVYFASTRESGVPDRFVGSGSGTDFTLTITSVQAEDLADYFCQQHYITPLTFGAGTKLE
- binding to DKK2 protein (ELISA) [1]: bound specifically to DKK2 antigen in a dose-dependent manner; also recorded: binds specifically to DKK2 protein
- binding to DKK1 (ELISA) [2]: not to DKK1
- growth of MC38 cells in culture [3]: did not affect the growth of MC38 cells in culture
- apoptosis (activated caspase 3) in tumors [4]: a significant enhancement of apoptosis
- number of granzyme B-positive cells in tumors [4]: significant increases in the number of granzyme B-positive cells
- tumor angiogenesis (CD31) [4]: no significant difference in angiogenesis
- tumor cell proliferation (Ki67) [4]: no significant difference in tumor cell proliferation
- granzyme B in tumor infiltrated CD8+ and NK1.1+ cells [5, 6]: significant increases in granzyme B
- percentage of myeloid, CD4+, CD8+, T regulatory, NK1.1+ cells in tumors [5, 6]: no significant differences
- IFNγ in CD8+ and NK1.1+ cells after acute treatment [5, 7]: trends of increased IFNγ
- PD-1 in CD8+ cells after acute treatment [5, 7]: trends of increased
- activation markers on CD8+ cells after acute treatment [5, 7]: significant increases in CD69, CD107a, CD314, and CD25
- activation markers on NK cells after acute treatment [5, 7]: CD69 and CD314 on NK cells
- granzyme B in tumor infiltrated CD8+ and NK1.1+ cells after acute treatment [5, 7]: strong increases in granzyme B
- populations of CD4+, CD8+, NK1.1+ cells in tumors after acute treatment [5, 7]: no significant differences

Entries after “also recorded” stand apart in the source; their conditions may differ.
